Results reported in PubChem BioAssay AID1347120 (National Center for Advancing Translational Sciences (NCATS), 2019).
Out of some 390,000 compounds screened, about 930 (0.24%) were called active. Inconclusive means that the source gave no clear call. Such entries were picked first, then a sample of the others. The call rests on the fitted dose curve; in most records, active means well fitted activation curve with a large enough effect; inconclusive means small, poorly fitted or top-dose-only effect; inactive means no such curve, though single readings can be large or run the other way. Where the call is inconclusive, the potency comes from a doubtful curve fit.

assay: qHTS for Suppressors of FUS Proteinopathy: Primary screen using FUS-linked yeast assay; further: nearly all actives have a fitted effect of over 55% in size;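 on growth rescue (activation): plate controls were DMSO vehicle for no effect and reference control for full effect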; conditions: S. cerevisiae FUS-expressing, OD600, 24 h; Potency: growth rescue; growth rescue (activation): at 76.6 µM (top of the series)
How it was run: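 Restored growth of FUS-toxic S. cerevisiae, read as 600 nm absorbance after 24 h at 30C in galactose medium (starting OD 0.005). Controls CP55940 and DMSO.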
Potency means the concentration at half of the fitted maximal effect; tags describe the fitted curve by direction and shape.

Compound	growth rescue (activation)	Potency
Cc1c(Cl)cccc1NC(=S)NCCc1ccc(C(F)(F)F)cc1	inactive: 9.19%	
CN(Cc1ccccc1)S(=O)(=O)c1cccc(C(=O)OCc2ccc(Oc3ccccc3)cc2)c1	inactive: -11.3%	
CC1(C(=O)Nc2cccc(C#N)c2)CCN1C(=O)Cc1ccc(-c2ccccc2)cc1 (centres undefined)		inconclusive: 35.5 µM [activator, single point]
O=C(c1cccc(NS(=O)(=O)c2cccc(F)c2)c1)N1CCN(c2ccccc2)CC1		inconclusive: 17.8 µM [activator, partial curve]
C=Cc1ccc(Cn2c(=O)n(-c3ccccc3C)c(=O)c3c4c(sc32)CN(C(C)=O)CC4)cc1		inconclusive: 25.1 µM [activator, partial curve, poor fit]
Cc1ccc(C(=O)Nc2ccc3c(c2)N(C)C(=O)c2ccccc2S3)cc1F		inconclusive: 31.6 µM [activator, single point]
COc1ccc(-n2c(-c3ccc(Br)cc3)n[nH]c2=S)cc1	inactive: -8.03%	
Cc1[nH]nc2c1C(c1ccc(F)cc1)C(C#N)=C(N)O2 (centres undefined)	inactive: -10.8%	
CCN(CC)S(=O)(=O)c1ccc(/C=C/C(=O)OCC(=O)Nc2cccc3ccccc23)cc1		inconclusive: 8.91 µM [activator, partial curve]
COc1ccc(Cn2c(SCC#N)nc3ccc(N4CCOCC4)cc3c2=O)cc1		inconclusive: 25.1 µM [activator, partial curve, poor fit]
Cc1ccc(NS(=O)(=O)c2c(C(=O)N3CCCCCC3)c(C)n(C)c2C)cc1F		inconclusive: 28.2 µM [activator, partial curve, poor fit]
O=C1NC[C@H](c2ccccc2)OC(=O)[C@H](Cc2ccc(F)cc2)C/C=C\C[C@H]1CC(=O)N(CCO)Cc1ccccc1		inconclusive: 17.8 µM [activator, single point]
NC(c1ccccc1)c1csc(NC(=O)NCCc2ccccc2)n1 (centres undefined)		inconclusive: 50.1 µM [activator, single point]
Clc1nc(Cl)nc(NCCC2=CCCCC2)n1	inactive: 21.5%	
CCCCCCC(=O)N1CCCC(c2nc(-c3cccc(OC)c3)no2)C1 (centres undefined)		inconclusive: 17.8 µM [activator, single point]
O=C(Nc1ccc(Br)cc1)c1ccc(Br)c(S(=O)(=O)NCc2ccccc2)c1		inconclusive: 44.7 µM [activator, single point]
Clc1cccc(-c2noc3ncnc(NC4CCCCC4)c23)c1	inactive: -15.3%	
COc1ccc(Br)cc1CNC(=O)CCC(=O)N1CCSc2ccccc21		inconclusive: 28.2 µM [activator, partial curve, poor fit]
CN(C(=O)c1cccc(Nc2ccc(-c3ccc4c(c3)OCCO4)nn2)c1)C1CCCCC1		active: 25.1 µM
COc1ccccc1CNC(=O)Nc1ccc2c(c1)N(C)C(=O)c1ccccc1S2		inconclusive: 44.7 µM [activator, single point]
COc1cc(C(=O)N/C(=C\c2cn(S(=O)(=O)N(C)C)c3ccccc23)C(=O)N2CCCC2)cc(OC)c1OC		inconclusive: 28.2 µM [activator, single point]
Cc1ccc(NC(=O)COc2ccc(CCO)cc2-n2nc3ccccc3n2)cc1C		inconclusive: 39.8 µM [activator, single point]
CN1C(=O)C2CCCCN2c2ccc(C(=O)NCc3ccccc3Br)cc21 (centres undefined)	inactive: -8.61%	

Compound	growth rescue (activation)	Potency
O=C(Cn1cc(SCc2cccc(C(F)(F)F)c2)c2ccccc21)N1CCCCCC1	inactive: 42.8%	
CN(Cc1ccccc1F)c1ncnc2sccc12	inactive: -5.42%	
CCc1ccc2[nH]c(=O)c(C3C(C#N)=C(N)Oc4c3ccc3cccnc43)cc2c1 (centres undefined)		active: 25.1 µM
CCN(CC(=O)Nc1ccc(Cl)c(S(=O)(=O)N(C)C)c1)Cc1nc2ccccc2c(=O)[nH]1		active: 31.6 µM
CCN(C(=O)CSc1nnc(C)n2c1cc1occc12)c1ccccc1	inactive: 22.4%	
Cc1ccc(O)c(Sc2cc(C)ccc2O)c1	inactive: -43.2%	
CCOC(=O)c1c(-c2ccccc2)oc2ccc(NS(=O)(=O)c3ccccc3)cc12		inconclusive: 50.1 µM [activator, single point]
CCCCc1nn2c(=O)cc(COC(=O)c3ccccc3NC(=O)C3CCCCC3)nc2s1	inactive: 4.11%	
CCOC(=O)Cn1cc(/C=N/NC(=O)c2ccc(C#N)cc2F)c2ccccc21		inconclusive: 20 µM [activator, partial curve, poor fit]
NS(=O)(=O)c1ccc(N=Nc2ccc(O)c3ncccc23)cc1	inactive: 21.1%	
COc1ccc(CNC(=O)c2cnc(N3CCCC3)nc2C)cc1	inactive: -5.02%	
COc1ccccc1N1CCN(C(=O)C2c3ccccc3Oc3ccccc32)CC1	inactive: 24.8%	
CCCn1c(CCC(=O)Nc2ccccc2Cc2ccccc2)nc2cc(S(=O)(=O)N3CCOCC3)ccc21		inconclusive: 3.55 µM [activator, full curve]
Cn1cncc1C#Cc1c(-c2ccsc2)sc2ccccc12		inconclusive: 28.2 µM [activator, single point]
COc1cccc(CNC(=O)c2cc(C3CC3)nc3c2cnn3C(C)C)c1		inconclusive: 28.2 µM [activator, partial curve, poor fit]
N#Cc1cc(Sc2ccccn2)c(Sc2ccccn2)cc1C#N	inconclusive: 62.6% [activator]	
Cc1cc(NC(=O)CN(C)S(=O)(=O)c2ccc3c(c2)CCCC(=O)N3)ccc1Br	inactive: -6.16%	
Cc1cccc(-n2c(O)c(C=Nc3ccccc3-c3n[nH]c(=S)[nH]c3=O)c3ccccc3c2=O)n1		inconclusive: 35.5 µM [activator, single point]
CN(C(=O)c1ccccc1OCC(=O)Nc1ccc(Br)cc1)c1ccccc1	inactive: 34.8%	
COc1ccc([C@H]2C[C@H](O)[C@@H](n3cc(COC(=O)c4ccccc4)nn3)CN2CC2CCCCC2)cc1		inconclusive: 25.1 µM [activator, single point]
O=C(O)c1ccc(Nc2ccc(F)c(F)c2)c([N+](=O)[O-])c1	inactive: 19%	
O=C(N/N=C/c1cn(CCOc2ccccc2)c2ccccc12)c1ccncc1	inactive: 24.4%	
Cc1nc(Nc2cccc(Cl)c2)c2oc3ccccc3c2n1	inactive: 19.3%	

Compound	growth rescue (activation)	Potency
CCCCNc1c(-c2ccc(OC)c(SC3CCCCC3)c2)nc2ccc(Cl)cn12		inconclusive: 28.2 µM [activator, single point]
CCOC(=O)[C@]12CCCC=C1N(Cc1cccc3ccccc13)C(=O)[C@H](CC(=O)NCC1CCCCC1)C2		inconclusive: 11.2 µM [activator, single point]
O=C(Cn1cc(S(=O)(=O)c2ccc(F)cc2)c(=O)c2cc3c(cc21)OCO3)Nc1ccccc1	inactive: -14.2%	
CCOC(=O)[C@]12CCCC=C1N(Cc1cccc3ccccc13)C(=O)[C@H](CC(=O)N1CCC(c3ccccc3)CC1)C2		inconclusive: 31.6 µM [activator, single point]
COc1cc(CNc2ccc3[nH]c(=O)[nH]c3c2)ccc1OCC(=O)NC(C)(C)C		inconclusive: 50.1 µM [activator, single point]
Cc1ccc(Cc2nc3ccccc3nc2SCC(=O)N2CCCCC2)cc1		inconclusive: 22.4 µM [activator, single point]
C=CCN1C(=O)[C@@H](CC(=O)NCCCOC)[C@]2(C(=O)OCC)CCCCC/C=C/12	inactive: 14%	
COc1cc(OC)cc(C(=O)N2CCCc3ccccc32)c1	inactive: 15.9%	
Cc1cc(O)ccc1Nc1nc2ccccc2nc1Nc1ccc(O)cc1C		inconclusive: 25.1 µM [activator, partial curve, poor fit]
COC(=O)c1cc2oc(C)cc2n1Cc1cccc(Cl)c1	inactive: 15.2%	
Cc1cc(C)c2c(N)c(C(=O)Nc3ccccc3Br)sc2n1	inactive: -15.3%	
CCN1CCN(C(=O)C2CCCN(c3ncnc4c3nc3n4CCCCC3)C2)CC1 (centres undefined)		inconclusive: 50.1 µM [activator, single point]
CCOc1cccc(N(C(=O)C2COc3ccccc3O2)C(C(=O)NC2CCCCC2)c2ccc(O)cc2)c1 (centres undefined)		inconclusive: 5.01 µM [activator, partial curve, poor fit]
CCOC(=O)CN(C)C(=O)CCc1nnc(-c2ccc(-c3ccccc3)cc2)o1		inconclusive: 22.4 µM [activator, partial curve, poor fit]
CCCn1c(C)nc2cc(Cl)c(N3CCN(c4nc(-c5ccc(C)cc5)cs4)CC3)cc21		inconclusive: 50.1 µM [activator, single point]
Cc1cccc(-c2nnc(SCc3nc4ccccc4[nH]3)n2Cc2ccco2)c1		inconclusive: 35.5 µM [activator, single point]
CCOc1ccc(OCC)c(NC(=O)c2cnc3c(-c4ccccc4)c(C)nn3c2C)c1	inactive: 9.6%	
Cc1cc(-c2ccccc2)nc2[n+]1CCN2C	inactive: -3.45%	
OC1(c2cccc(C(F)(F)F)c2)CCN(c2ncnc3c2[nH]c2ccc(F)cc23)CC1		inconclusive: 14.1 µM [activator, partial curve, poor fit]
COc1ccc([C@H]2C[C@H](O)[C@@H](n3cc(COC(=O)c4ccccc4)nn3)CN2C(=O)C2CCCCC2)cc1		inconclusive: 22.4 µM [activator, single point]
Cc1cc(N2CCN(CCO)CC2)n2nc(C)nc2n1	inactive: -2.69%	
CC1CCN(c2ccc(-c3cccc(NS(=O)(=O)c4ccc(Cl)s4)c3)nn2)CC1		inconclusive: 44.7 µM [activator, single point]
Cc1ccc(C)c(N2CCN(C(=O)c3ccc(CSc4nc5ccncc5[nH]4)cc3)CC2)c1		inconclusive: 25.1 µM [activator, partial curve]
